# Source: ChEMBL document CHEMBL4888484, “Replenishing the malaria drug discovery pipeline: Screening and hit evaluation of the MMV Hit Generation Library 1 (HGL1) against asexual blood stage Plasmodium falciparum ,using a nano luciferase reporter read-out” (2022)
# Among all 4,800 compounds or so, about 420 (8.8%) showed an effect of 50% or more. The list shows a part of the results.
# System: Plasmodium falciparum
# Experiment: Confirmatory screen in NF54 nanoGlo assay, in single point, at 2uM, 72h
# Format: functional, Erythrocyte
# Details: timepoint 72 hour
row,Structure (SMILES),% Inhibition
1,Cc1ccc(C(=O)Nc2ccc(N3CCN(CCC#N)CC3)cc2C(=O)O)cc1,-12%
2,c1cncc(CN2CCN(C3CCCCCC3)CC2)c1,3%
3,NC(=O)C1CCCCCC1NC(=O)c1nccnc1N (configuration not stated),-2%
4,Cn1nc(C(=O)NCc2cccs2)cc1C(=O)NCc1cccs1,-9%
5,O=C(Nc1ccn(-c2ccccc2)n1)N1CC2CCC(O)CC2C1 (configuration not stated),-13%
6,CC(C)[C@@H]1CN(C(=O)c2ccncc2)c2ccccc2N1,-7%
7,COc1ccc(NC(=O)c2cc3c(C)nn(-c4ccccc4)c3s2)cn1,7%
8,C=CCN(CC=C)S(=O)(=O)c1ccc(S(=O)(=O)NC)cc1,-8%
9,c1ccc(C(c2ccccc2)N2CCN(c3nn4cnnc4c4ccccc34)CC2)cc1,65%
10,CCN(CC)S(=O)(=O)c1ccc2c(c1)CCCN2C(=O)c1ccc2ccccc2c1,1%
11,O=C(NCc1ccc(F)c(Cl)c1)c1csc(C(=O)NC2CCCC2)n1,-4%
12,C[C@@H](CC#N)NC(=O)Nc1cc(-c2ccccc2)ns1,11%
13,O=C(NCCCn1ncc2c(Cl)cccc21)C1CCC1,-1%
14,O=C1OCc2cc(NC(=O)[C@@H]3COc4ccccc4O3)ccc21,5%
15,Cc1ccc(NS(=O)(=O)c2ccc(NC(=O)CN(c3cc(Cl)ccc3C)S(C)(=O)=O)cc2)cc1C,-6%
16,CN1CCN(C(=O)CNC(=O)c2cccc(Cl)c2)CC1,-2%
17,Cc1nn(Cc2nnn(C)n2)c(C)c1Br,-10%
18,COc1ccc(-c2nccn3cc(C(=O)NCCN(C)C4CCCCC4)nc23)cc1,6%
19,O=C1[C@H]2C(Cc3c[nH]c4ccccc34)N[C@@]3(C(=O)Nc4ccc(F)cc43)[C@H]2C(=O)N1CC1CCCO1 (some centres not stated),-14%
20,CC(C)(C)c1cc(N)nc(C(C)(C)C)n1,-16%
21,Cn1cncc1CC(=O)Nc1ccnc(NC(=O)OC(C)(C)C)c1,96%
22,Cn1cnn(CC(=O)N2CCc3ccccc3C2)c1=O,0%
23,O[C@H]1Cc2ccccc2[C@H]1Nc1nc(-c2ccccn2)nc2c1CCNC2,13%

row,Structure (SMILES),% Inhibition
1,CC(C)C(NC[C@H]1CCCN1S(C)(=O)=O)c1cc2ccccc2o1 (some centres not stated),-7%
2,O=C(CCC(=O)Nc1cccnc1)NCc1ccc2c(c1)OCO2,-2%
3,CS(=O)(=O)CC1(CNC(=O)c2ccc(Br)cc2)CC1,6%
4,C[C@@H](CNc1nc(-c2ccccc2)nc2nc(-c3ccc(Cl)cc3)oc12)N1CCCCC1,60%
5,COc1cc(C(=O)NC2CCCCC2)cc2occc12,-8%
6,COc1ccc(NS(=O)(=O)c2ccc(NC(=O)CN(c3ccc(F)cc3)S(C)(=O)=O)cc2)cc1,5%
7,FC(F)(F)C1CCCC(NCc2c[nH]nc2-c2cccnc2)C1 (configuration not stated),-2%
8,Cc1c(C)n(C[C@H](O)Cn2c(C(F)(F)F)nc3ccccc32)c2c(Cl)cccc12,-6%
9,COc1ccc(Nc2nc(C(=O)Nc3ncc(C)s3)cs2)cc1OC,17%
10,CNC(=O)c1nc(C(=O)NCc2ccco2)cs1,-13%
11,CC(C)C(=O)N1CC[C@H](CC(=O)NCc2ccccc2)C1,-4%
12,O=C(O)c1cccc2c(-c3cc(-c4ccccc4)n(-c4ccccc4)n3)ccc(C(=O)O)c12,-4%
13,COc1cc(CNCc2cccs2)ccc1OCc1ccccc1C,-7%
14,O=C(N[C@H]1CCOC1=O)OCc1ccccc1,-7%
15,CN1CCN(CC2(O)CCN(S(=O)(=O)c3ccc(Cl)cc3)CC2)CC1,-11%
16,O=C(Cc1c[nH]c2ccccc12)NC1(C(=O)NC2CCCC2)CCCCC1,0%
17,CCNC(=O)c1nc(-c2ccncc2)cs1,-21%
18,Cn1c(=O)c2c(ncn2CC(=O)N(Cc2ccccc2)C2CC2)n(C)c1=O,-4%
19,CCNC(=O)CNC(=O)Nc1cnn(C(C)C)c1,0%
20,COc1ccc(N2CCN(C(=O)c3ccc(F)cc3)[C@@H](C)C2=O)cc1,5%
21,C[C@@H](C(=O)NCCN1CCCCC1)N1C(=O)COc2ccc(C(=O)COc3ccc(Cl)cc3)cc21,-14%
22,O=c1cc2c(nn1Cc1cccc(Cl)c1)-c1ccccc1CC2,-6%
23,COc1ccc(CNc2nc(-c3nnc(-c4ccccc4)o3)nc3ccccc23)cc1,55%

row,Structure (SMILES),% Inhibition
1,O=C(C[C@H]1CCN(S(=O)(=O)c2ccc(F)cc2F)C1)NCc1ccccc1,5%
2,O=C(O)c1cc2c(cc1C(=O)Nc1ccc(Cl)cc1)=[O+]c1ccccc1-c1ccccc1[O+]=2,-17%
3,Cc1[nH]c2ccccc2c1C1CCN(C(=O)c2ccc(Br)cc2O)CC1,-8%
4,Cc1ccccc1CN(Cc1ccccn1)Cc1ccnn1C,-2%
5,Cc1ccc(NC(=O)CC2CCOCC2)cc1F,-12%
6,Fc1cnc(OC2Cc3ccccc3C2)nc1,57%
7,Oc1ccc(-c2ncc3n2CCCC3)cc1,4%
8,Nc1cc(Cl)c(C(F)(F)F)cc1N,2%
9,Nc1nc(C2CC(N)C2)cc(N2CCC(Oc3ccccc3Cl)CC2)n1 (configuration not stated),51%
10,O=C(NCCC1=CCOCC1)c1cnc2ccccn12,-5%
11,O=C(ON1C(=O)CCC1=O)c1cc2ccccc2[nH]1,3%
12,O=C(Nc1ccc(-n2cncn2)cn1)c1cscn1,-18%
13,O=C(CCc1nc(-c2cccc(F)c2)no1)NCc1ccc2c(c1)OCO2,4%
14,O=c1[nH]c2ccccc2c(NCc2ccccc2)c1N1CCN(c2ccccc2)CC1,5%
15,COC(=O)c1nccc(N2CCc3ccccc3C2)n1,-4%
16,COCCN(CC1CN(Cc2ccccc2OC)CC1c1ccccc1OC)C(=O)COC (configuration not stated),-2%
17,CCC(C)(C)C(=O)NCC1CCN(S(=O)(=O)C(F)F)CC1,-4%
18,COC(=O)[C@H](C)N(C(=O)CO)c1c(C)cccc1C,6%
19,COc1cccc(-c2cn(C)c3c(=O)n(CC(=O)Nc4ccccc4Cl)cnc23)c1,-9%
20,CC(C)(C)NC(=O)N[C@H]1COc2c1ccc(Cl)c2Cl,-3%
21,Cc1cc(C)c(N2CCC(NC(=O)C(C)n3cncn3)C2=O)c(C)c1 (configuration not stated),0%
